This is one part of the list. Single values of this set are uncertain.
How the values were obtained:
Experiment in all cases: mutation enrichment score (mutant vs wild-type peptide binding to bait); baits are purified protein domains named by gene / domain / UniProt id / residues; peptides come from disordered regions of human proteins; higher = mutation enhances binding relative to wild type
[1] = molecular target: T1, SIN3A_PAH__Q96ST3_295_383; conditions: paper call: no_effect, wild-type window: …
T1 chain: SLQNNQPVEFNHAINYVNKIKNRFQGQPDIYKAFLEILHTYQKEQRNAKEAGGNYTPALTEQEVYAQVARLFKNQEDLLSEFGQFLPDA

SHC_PH__P29353_149_317 = molecular target: T2, SHC_PH__P29353_149_317; conditions: paper call: no_effect, wild-type window: …
T2 chain: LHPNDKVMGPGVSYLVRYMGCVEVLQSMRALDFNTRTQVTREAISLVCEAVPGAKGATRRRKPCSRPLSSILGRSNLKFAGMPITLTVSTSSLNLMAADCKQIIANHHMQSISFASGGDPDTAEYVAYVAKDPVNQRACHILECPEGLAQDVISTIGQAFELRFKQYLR

[2] = molecular target: RUNX1T1-MYND___Q06455_510_559; conditions: paper call: no_effect, wild-type window: …
[3] = molecular target: SMURF2_WW_3_Q9HAU4_298_330; conditions: wild-type window: …
TLN1_PTB__Q9Y490_309_401 = molecular target: T3, TLN1_PTB__Q9Y490_309_401; conditions: number of wild-type / mutant comparisons summed (bounds the score): 12, wild-type window: …
T3 chain: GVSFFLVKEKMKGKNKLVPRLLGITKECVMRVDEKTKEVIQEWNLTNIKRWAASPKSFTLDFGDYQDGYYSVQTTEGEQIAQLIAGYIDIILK

TLN2_PTB__Q9Y4G6_312_417 = molecular target: T4, TLN2_PTB__Q9Y4G6_312_417; conditions: paper call: no_effect, wild-type window: …
T4 chain: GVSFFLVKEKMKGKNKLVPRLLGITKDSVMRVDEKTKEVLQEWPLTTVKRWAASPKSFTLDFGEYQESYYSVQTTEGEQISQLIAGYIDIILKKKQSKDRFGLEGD

SNX27_PDZ__Q96L92_40_141 = conditions: paper call: no_effect, wild-type window: …
REPS1___Q96D71_226_314 = conditions: paper call: no_effect, wild-type window: …
WWTR1_WW__Q9GZV5_122_160 = conditions: paper call: no_effect, wild-type window: …
VCL_Vinc__P18206_1_258 = molecular target: T5, VCL_Vinc__P18206_1_258; conditions: number of wild-type / mutant comparisons summed (bounds the score): 12; paper call: no_effect; wild-type window: …
T5 chain: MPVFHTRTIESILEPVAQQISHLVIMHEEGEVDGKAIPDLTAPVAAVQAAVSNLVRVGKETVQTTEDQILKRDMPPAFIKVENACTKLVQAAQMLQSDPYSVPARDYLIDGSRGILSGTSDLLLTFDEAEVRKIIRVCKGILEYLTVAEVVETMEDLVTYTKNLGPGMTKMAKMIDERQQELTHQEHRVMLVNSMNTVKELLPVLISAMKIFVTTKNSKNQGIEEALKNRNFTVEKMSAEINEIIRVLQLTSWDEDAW

[4] = number of wild-type / mutant comparisons summed (bounds the score): 5
[5] = number of wild-type / mutant comparisons summed (bounds the score): 6
[6] = number of wild-type / mutant comparisons summed (bounds the score): 12
[7] = number of wild-type / mutant comparisons summed (bounds the score): 12, paper call: diminished
[8] = number of wild-type / mutant comparisons summed (bounds the score): 6, paper call: no_effect

Chain of WWTR1_WW__Q9GZV5_122_160 (chain, as listed by the source): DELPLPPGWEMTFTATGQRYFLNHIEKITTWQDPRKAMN

## LERIGKKLNLFDSLYFCIVTLSTVGFGDVTPETWSSKLFVV [F240L F240L]
[1]; [4]
  mutation enrichment score: 2

## ECLNASLLGGVLRRAKSKNGERSLREKLDKIGLNLPAGRRK [G262E G262E]
SHC_PH__P29353_149_317; [5]
  mutation enrichment score: 1

## FRPWSPAVSASEKELSPHLPVLIRDSFYSYKSFETAVAPNV [A399V A399V]
[2]; [6]
  mutation enrichment score: 2

## HTTNVAQSIGPTPVCLQLTEQDLETNKLDPKEVDKNLKESS [E661Q E661Q]
SHC_PH__P29353_149_317; [5]
  mutation enrichment score: 2

## SSTFCMRTFGYNTIDVVPTYKHYANSTQPGEPRKVRPTLAD [E68K E68K]
[3]; [7]
  mutation enrichment score: -8

## WKNVKVNFDNVGFGYLSLLQAATFKGWMDIMYAAVDSRNVE [V1428A V1428A]
[1]; [4]
  mutation enrichment score: 3

## ELVSLKDRIERRRAERAEQQHIRNEREKERQNRLAEERARR [R149H R149H]
SHC_PH__P29353_149_317; [5]
  mutation enrichment score: 1

## VDCNNAPLPRALPSTWIENKPYGMSDPNWPGESPVPLTRAD [L1061P L1061P]
SHC_PH__P29353_149_317; [6]
  mutation enrichment score: -5
TLN1_PTB__Q9Y490_309_401; paper call: diminished
  mutation enrichment score: -6
TLN2_PTB__Q9Y4G6_312_417; [5]
  mutation enrichment score: -6

## NNAPLPRALPSTWIENKLYGTSDPNWPGESPVPLTRADGTN [M1064T M1064T]
SHC_PH__P29353_149_317; [6]
  mutation enrichment score: -5
TLN1_PTB__Q9Y490_309_401; paper call: no_effect
  mutation enrichment score: -2.9
TLN2_PTB__Q9Y4G6_312_417; [6]
  mutation enrichment score: -2.5

## FPNEGIAIDMELQSDPEEQLLENACISETSFSSESPEGACT [S603L S603L]
SNX27_PDZ__Q96L92_40_141; [5]
  mutation enrichment score: 0.07

## DCNNAPLPRALPSTWIENKLCGMSDPNWPGESPVPLTRADG [Y1062C Y1062C]
SHC_PH__P29353_149_317; [6]
  mutation enrichment score: -5
TLN1_PTB__Q9Y490_309_401; paper call: diminished
  mutation enrichment score: -6
TLN2_PTB__Q9Y4G6_312_417; [5]
  mutation enrichment score: -6

## EPLLPLQCGETDLDLTVQETSLQGPVGGDQRPEVEDPEELS [G1031S G1031S]
SNX27_PDZ__Q96L92_40_141; [5]
  mutation enrichment score: 4

## MDVLVSECSARLLQQEEEIKVL [D2V D2V]
[1]; [4]
  mutation enrichment score: -5

## IRYAHGLISDYIPKELSDDLPKYLKLPEPSASLPNPPSKKI [S229P S229P]
[3]; number of wild-type / mutant comparisons summed (bounds the score): 6, paper call: enhanced
  mutation enrichment score: 6

## EGVRRARERLEQADLILAMLHASDLASPSSCNFLATVVASV [D337H D337H]
REPS1___Q96D71_226_314; [5]
  mutation enrichment score: 2

## SRVAPHGRGPGLLPLLAALASFSRPAAAEEEEQQGADGAAA [W65S W65S]
[1]; [4]
  mutation enrichment score: -2

## GGPRGSSETVGAALLLNLLARLGAMGARRP [G175R G175R]
[1]; [4]
  mutation enrichment score: -2

## MTAWLISLMSIEVLLLAVRHVSLHIEPEEGSLAGGTW [A17V A17V]
[1]; [4]
  mutation enrichment score: 2

## GGPRGSSETVGAALLLNLLASLGAMGARRP [G175S G175S]
[1]; [4]
  mutation enrichment score: -2

## LGSHPAPARAQKPGSSGLAAPGLCVLGEDNAPL [R386P R386P]
REPS1___Q96D71_226_314; [5]
  mutation enrichment score: -3

## SPQSYEELQTQRVMANVRERPRTQSLNEAFAALRKIIPTLP [Q119P Q119P]
SHC_PH__P29353_149_317; [5]
  mutation enrichment score: 1

## KFGITDLPRIDVSKREPPPVEQELPPYNGFGLVEDSAQNCF [K378E K378E]
[3]; number of wild-type / mutant comparisons summed (bounds the score): 12, paper call: enhanced
  mutation enrichment score: 6.7
WWTR1_WW__Q9GZV5_122_160; [6]
  mutation enrichment score: 3.5

## WSGTEAPTQVTVETHPVQETNFHVAPQQNALHHHHGNSSHH [T588N T588N]
SNX27_PDZ__Q96L92_40_141; [6]
  mutation enrichment score: -2

## IAQLEEELEEEQGNMEAMSDQVRKATQQAEQLSNELATERS [R1758Q R1758Q]
SHC_PH__P29353_149_317; [5]
  mutation enrichment score: 2

## LYAAGERGGHLQGAPGGAGGLAVDDPLPDYSLPPVTSSSSS [S422L S422L]
[3]; [8]
  mutation enrichment score: 5.9

## MDVLVSECSARLLQQEEEIKGL [D2G D2G]
[1]; [4]
  mutation enrichment score: -5

## MVSKLSQLQTELLAALLESGRSKEALIQALGEPGPYLLAG [G20R G20R]
[2]; [5]
  mutation enrichment score: -1

## QLQTELLAALLESGLSKEALLQALGEPGPYLLAGEGPLDKG [I27L I27L]
[2]; [5]
  mutation enrichment score: -1

## PPEGSEAAEEAAPSDRMPSAWPPSPPLSSWERVSRLMEEDP [R912W R912W]
SHC_PH__P29353_149_317; [6]
  mutation enrichment score: 2

## QSTHPSTNPTLVDPTRHLQQWPSGYVHQQAPTYGHGLTSTQ [R1994W R1994W]
SHC_PH__P29353_149_317; [5]
  mutation enrichment score: 1

## AKKPAQTASKLPPPVARKPSELPVYKLLPSQNRLQPQKHVS [Q1611E Q1611E]
[3]; [8]
  mutation enrichment score: 3

## ILSKVFDQQSSPMVTRLLQQHNLPQTGEQELESLVLKLSVL [Q251H Q251H]
REPS1___Q96D71_226_314; [6]
  mutation enrichment score: -3

## ERGQLELEFSMAMGTLISELMQAMRWDQASDRPRSSARSPG [V308M V308M]
[1]; [4]
  mutation enrichment score: -1

## ERGQLELEFSMAMGTLISELLQAMRWDQASDRPRSSARSPG [V308L V308L]
[1]; number of wild-type / mutant comparisons summed (bounds the score): 10
  mutation enrichment score: 0

## STFCMRTFGYNTIDVVPTYENYANSTQPGEPRKVRPTLADL [H69N H69N]
[3]; [7]
  mutation enrichment score: -8

## TTRIHELKQAKVSTVMDTVGWRLRDSLGRTVDLGLTGNHGV [R469W R469W]
SHC_PH__P29353_149_317; [6]
  mutation enrichment score: -2

## MDVLVSECSARLLQQEEEIKAL [D2A D2A]
[1]; [4]
  mutation enrichment score: -4.9

## SPERAPVQNSPWKETSLDHPFEKPRKSSEPWSESSSPATTP [Y333F Y333F]
SNX27_PDZ__Q96L92_40_141; [5]
  mutation enrichment score: -3

## PSHLTHSSTFCMRTFGYNTIHVVPTYEHYANSTQPGEPRKV [D62H D62H]
[3]; [7]
  mutation enrichment score: -8

## PSHLTHSSTFCMRTFGYNTINVVPTYEHYANSTQPGEPRKV [D62N D62N]
[3]; [7]
  mutation enrichment score: -8

## IIGGSDLIAHHARKNTELEESLRQEMEVQNQHAKEESLADD [W722S W722S]
[1]; [4]
  mutation enrichment score: -4

## SHPSHLTHSSTFCMRTFGYNMIDVVPTYEHYANSTQPGEPR [T60M T60M]
[3]; [7]
  mutation enrichment score: -5.5

## ELNDRLAVYIDRVRSLETENPGLRLRITESEEVVSREVSGI [A57P A57P]
SHC_PH__P29353_149_317; [5]
  mutation enrichment score: 1

## RRYYKEKFGITDLPRIDVSKWEPPPVKQELPPYNGFGLVED [R372W R372W]
[3]; [8]
  mutation enrichment score: 1
WWTR1_WW__Q9GZV5_122_160; [5]
  mutation enrichment score: 2

## MGLLECCARCLVGAPFASLVLTGLCFFGVALFCGC [P15L P15L]
[1]; [4]
  mutation enrichment score: -4
VCL_Vinc__P18206_1_258
  mutation enrichment score: 4

Reference: the supplement of paper PMC11369174, “Proteome-scale characterisation of motif-based interactome rewiring by disease mutations” (Molecular Systems Biology, 2024)
